Experiments:
[1] = test system: promyelocytic leukemia HL 60; assay: In vitro cytotoxic activity (Calcein AM, 72 hours), HL 60; settings: Homo sapiens, HL-60, 72 h, read-out: Cytotoxicity IC50 HL60
CDK2/cyclin E = CDK2/cyclin E (Homo sapiens, UniProt P24941); assay: CDK inhibition assay, CDK2/cyclin E
[2] = test system: p53-responsive reporter pRGCΔfoslacZ in human melanoma cell line Arn8; assay: p53-dependent transcriptional activity, β-galactosidase reporter in Arn8 cells; settings: concentration inducing maximum of β-galactosidase activity (p53-responsive reporter)
breast carcinoma MCF7 = assay: In vitro cytotoxic activity (Calcein AM, 72 hours), MCF7; settings: Homo sapiens, MCF7, 72 h, read-out: Cytotoxicity IC50 MCF7
[3] = test system: human erythroleukaemia K562; assay: In vitro cytotoxic activity (Calcein AM, 72 hours), K562; settings: K562, 72 h, read-out: Cytotoxicity IC50 K-562
[4] = test system: cervical carcinoma cells HELA; assay: In vitro cytotoxic activity (Calcein AM, 72 hours), HELA; settings: Homo sapiens, read-out: Cytotoxicity IC50 HeLa
[5] = test system: human malignant melanoma G 361; assay: In vitro cytotoxic activity (Calcein AM, 72 hours), G 361; settings: G-361, 72 h, read-out: Cytotoxicity IC50 G361
[6] = In vitro cytotoxic activity (Calcein AM, 72 hours), BJ; settings: human, BJ normal fibroblasts
[7] = test system: human T-lymphoblastoid leukaemic cell line CEM; assay: In vitro cytotoxic activity (Calcein AM, 72 hours), CEM; settings: read-out: Cytotoxicity IC50 CEM
[8] = test system: human osteogenic sarcoma HOS; assay: In vitro cytotoxic activity (Calcein AM, 72 hours), HOS; settings: read-out: Cytotoxicity IC50 HOS
CDK9/cyclin T = CDK9/cyclin T (Homo sapiens, UniProt P50750); assay: CDK inhibition assay, CDK9/cyclin T
CDK1/cyclin B = CDK1/cyclin B (Homo sapiens, UniProt P06493); assay: CDK inhibition assay, CDK1/cyclin B

IC50 (CDK2/cyclin E) [µM] | IC50 (CDK9/cyclin T) [µM] | IC50 (CDK1/cyclin B) [µM] | Compound | IC50 [1] [µM] | Max. β-Gal. Activtity Conc. [2] [µM] | IC50 (breast carcinoma MCF7) [µM] | IC50 [3] [µM] | IC50 [4] [µM] | IC50 [5] [µM] | IC50 at 72 h [6] [µM] | IC50 [7] [µM] | IC50 [8] [µM]
0.08 | 0.004 | 0.1 | CC(C)n1cnc2c(NCc3ccccc3N)nc(NC3CCC(N)CC3)nc21 (centres unmarked) [Compound 102, N^6-(2-aminobenzyl)-N^2-(4-aminocyclohexyl)-9-isopropyl-9H-purine-2,6-diamine] | 32 | 13 | 5.5 | 20 | 16 | 17 | > 167 | 9 | 44
0.01 | 0.0008 | 0.05 | CCC(Nc1nc(NCc2ccccc2N)c2ncn(C(C)C)c2n1)C(C)O (centres unmarked) [Compound 114] | 34 | 3 | 11 | 28 | 17 | 15 | > 167 | 17 | 19
0.1 | 0.002 | 0.4 | COc1cccc(CNc2nc(NCC(C)O)nc3c2ncn3C(C)C)c1N (centres unmarked) [Compound 166] | 31 | 14 | 17 | 24 | 16 | 17 | > 167 | 13 | 32
0.1 | 0.001 | 0.2 | CCC(CO)Nc1nc(NCc2cc(OC)ccc2N)c2ncn(C(C)C)c2n1 (centres unmarked) [Compound 182] | 18 | 12 | 3.1 | 21 | 4.2 | 15 | > 167 | 7.3 | 11
0.03 | 0.004 | 0.09 | CCC(CO)Nc1nc(NCc2ccccc2N)c2ncn(C)c2n1 (centres unmarked) [Compound 5] | 8 | 29 | 2 | 6 | 2 | 3 | > 167 | 3 | 4
0.008 | 0.0009 | 0.07 | CCC(CO)Nc1nc(NCc2cc(F)ccc2N)c2ncn(C(C)C)c2n1 (centres unmarked) [Compound 128] | 8.5 | 4 | 2.9 | 10.2 | 3.2 | 12 | > 167 | 6.2 | 10.8

The next lines start with the molecule.

Compound | IC50 (CDK2/cyclin E) [µM] | IC50 (CDK9/cyclin T) [µM] | IC50 (CDK1/cyclin B) [µM] | IC50 [1] [µM] | Max. β-Gal. Activtity Conc. [2] [µM] | IC50 (breast carcinoma MCF7) [µM] | IC50 [3] [µM] | IC50 [4] [µM] | IC50 [5] [µM] | IC50 at 72 h [6] [µM] | IC50 [7] [µM] | IC50 [8] [µM]
CC(CNc1nc(NCc2ccccc2N)c2ncn(C)c2n1)C(C)(C)O (centres unmarked) [Compound 12] | – | – | – | – | 33 | – | – | – | – | – | – | –
Cn1cnc2c(NCc3ccccc3)nc(NCCO)nc21 [OC] | – | – | – | 123 | 125 | – | – | 108 | 161 | – | 62 | –
Cn1cnc2c(NCc3ccccc3N)nc(NCC(C)(C)O)nc21 [Compound 8] | 0.02 | 0.001 | 0.04 | 2.8 | 24 | 1.8 | 3.4 | 1.3 | 1.7 | > 167 | 0.6 | 1.1
COc1cccc(CNc2nc(NC3CCC(N)CC3)nc3c2ncn3C)c1N (centres unmarked) [Compound 46] | 0.3 | 0.05 | 0.5 | 28 | 32 | 13 | 27 | 18 | 13 | > 167 | 13 | 19
CC(C)n1cnc2c(NCc3ccccc3N)nc(NCCC(C)(C)O)nc21 [Compound 110] | – | – | – | – | 29 | – | – | – | – | – | – | –
CCn1cnc2c(NCc3ccccc3N)nc(NC3CCC(N)CC3)nc21 (centres unmarked) [Compound 59] | 0.2 | 0.04 | 0.6 | 29 | 33 | 14 | 31 | 20 | 15 | > 167 | 10 | 17
CC(C)n1cnc2c(NCc3ccccc3)nc(NC3CCC(O)CC3)nc21 (centres unmarked) [Compound A2144] | 0.8 | 0.6 | 0.6 | 51 | – | 24 | – | 36 | 34 | > 167 | 20 | 27
CCC(CO)Nc1nc(NCc2ccccc2N)c2ncn(C3CCCCC3)c2n1 (centres unmarked) [Compound 198] | 0.1 | 0.03 | 0.4 | 26 | 19 | 9 | 22 | 14 | 11 | > 167 | 10 | 16
